# Measured values published in the supplement of paper PMC3334620.
# The full ranking holds about 33,000 sequences; the median of “E-score (-0.5 to 0.5)” is about -0.036, and the highest 2% start at about 0.37. This is one part of the list.
# Target: T1, Yer064c (UniProt P40041)
# T1 sequence: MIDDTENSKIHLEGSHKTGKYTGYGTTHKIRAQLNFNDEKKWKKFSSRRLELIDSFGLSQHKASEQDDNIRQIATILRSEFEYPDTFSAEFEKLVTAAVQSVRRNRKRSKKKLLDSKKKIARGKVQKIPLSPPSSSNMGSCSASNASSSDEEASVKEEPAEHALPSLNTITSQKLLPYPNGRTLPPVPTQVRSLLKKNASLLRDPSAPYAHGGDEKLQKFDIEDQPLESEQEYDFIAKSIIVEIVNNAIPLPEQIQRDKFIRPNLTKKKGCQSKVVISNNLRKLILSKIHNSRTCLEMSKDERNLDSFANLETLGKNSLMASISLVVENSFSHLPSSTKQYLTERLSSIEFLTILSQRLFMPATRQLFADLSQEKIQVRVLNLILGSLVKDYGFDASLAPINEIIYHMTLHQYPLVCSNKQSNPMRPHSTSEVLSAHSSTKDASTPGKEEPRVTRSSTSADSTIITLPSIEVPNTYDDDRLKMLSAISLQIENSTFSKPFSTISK
# Experiment: PBM E-score (8-mer binding enrichment) (E-score (-0.5 to 0.5)); higher = stronger / more preferred TF binding; most listed sequences are background and not binding sites
# Details: protein concentration: 200 nM; construct: GST-full length
# Summary of the method: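 PURExpress in vitro transcription/translation supplied GST-tagged yeast transcription factors, either full-length or DNA-binding domain. Applied at about 100-200 nM to universal all-10-mer Agilent arrays double-stranded by primer extension, the bound protein was detected with fluorescent anti-GST. E-scores, modified Wilcoxon-Mann-Whitney statistics, were given by the Universal PBM Analysis Suite to ungapped eight-base words pooled with their reverse complements after masliner normalisation.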
row,Sequence,PBM E-score
1,AGTACCAC,0.0908
2,CGGCGCAG,0.0139
3,CCGGTTAG,-0.124
4,ATACTCCG,0.0839
5,TAACAGGA,-0.00109
6,AACGAGTG,-0.0801
7,CACGCATC,-0.103
8,GCCGATAC,-0.208
9,CGAAATGC,-0.137
10,CAACAATA,-0.0218
11,ACCCCCCT,-0.244
12,AGGATTCA,0.24
13,TACTGTCA,-0.0497
14,CTACCGAA,0.0592
15,CTGGAGTC,0.39
16,CTCCAAGA,0.153
17,CGCCTAAC,-0.00756
18,ACTTCCCG,-0.0355
19,GGCTAGTA,0.0403
20,AGTTAGGA,0.0663
21,ACCCTCGT,-0.122
22,CATGGTAA,0.00616
23,AATTGCGC,-0.0586
24,CTTTCCAC,-0.237
25,ACGTATAC,0.0854

row,Sequence,PBM E-score
1,GTGCGACA,-0.0826
2,AGGAATGA,0.202
3,ACGCAAGT,-0.149
4,AGTTAGTC,0.447
5,CATGGCAC,-0.209
6,CGCGGGAC,-0.201
7,CCACTCGA,0.113
8,AACATTGA,0.242
9,CGTGAGAA,-0.02
10,CGTGGGCA,-0.285
11,CGTATCGA,-0.111
12,CACTTCCG,-0.172
13,CAAGTTGA,0.117
14,GACCATCA,0.0375
15,CTGCCGCC,-0.248
16,GTTGCCTA,-0.297
17,AAAGTTAA,0.154
18,ACTTATAC,0.143
19,AACGGCAG,-0.0489
20,AAGTAAGT,0.128
21,CAATTCTC,-0.0313
22,GATCTCGC,-0.133
23,ATTGTGTC,0.128
24,ATAGAAAG,-0.171
25,GTTGGACA,-0.199

row,Sequence,PBM E-score
1,ATTTATTG,0.0179
2,ATACCGCG,-0.135
3,GAGCGCTC,-0.104
4,TACTATGA,0.318
5,AGTCGGAC,0.289
6,ATACCAAA,0.0691
7,CCGATTTC,-0.129
8,AACTTCTC,-0.111
9,CCCCGCCC,0.00655
10,ACAGATAG,-0.0338
11,ATGCACTC,-0.244
12,GCTGGGTA,-0.151
13,ACTTATGG,0.0461
14,CCATTGAG,0.051
15,AACAGTAT,-0.0344
16,AACGTTCC,-0.258
17,GGAGTTTA,-0.023
18,CTTGAGAA,0.136
19,ATTTCGTA,0.0825
20,ACATGGTA,0.0413
21,AATTATCC,-0.164
22,ATGAGACC,0.109
23,CAAGGGCA,-0.314
24,ACGCCATC,-0.136
25,ATCAAAGG,0.101

row,Sequence,PBM E-score
1,CCACCGAA,-0.0621
2,ATTCATGA,0.346
3,GTGTAATA,0.0937
4,ATGGCCAA,-0.199
5,GCGGGCCA,-0.291
6,CTCTTGTC,-0.0139
7,TACATTAA,0.0473
8,AGATTTAG,0.118
9,TACTGGGA,0.292
10,ACCCGAGG,-0.148
11,AGCGAGGG,-0.345
12,CGAAAGAA,0.0458
13,AGTGCGAC,-0.00807
14,TGTGTTAA,0.265
15,ATGGTTTA,0.115
16,CCATTATA,0.0179
17,CTCGTTGC,0.159
18,GTACACAA,0.0958
19,GTACAACA,0.0764
20,CATGCCGG,-0.0713
21,ATACATGC,0.011
22,CGCGTTCA,0.0376
23,CTATGACA,0.0745
24,GCAGGAAC,-0.185
25,CGTCTTGA,0.142

row,Sequence,PBM E-score
1,ACGATGGC,-0.0172
2,AACAGAAA,0.0295
3,AGCATTAG,0.04
4,ATCGTTGA,0.204
5,CACCTTAG,0.113
6,ATCGTCAA,0.0919
7,ACCCACGT,-0.0612
8,CTCTCTGC,0.00023
9,AAACGGTA,0.0163
10,ACATTTAT,-0.143
11,GCTCTTTA,-0.216
12,GCAACCCC,-0.127
13,ACTGAGAA,0.175
14,ACGGACTC,0.173
15,ATAAATGG,0.00546
16,CGGGATTA,-0.215
17,ATGACGAG,0.00318
18,CGTATCCA,0.072
19,GAATAGTA,-0.0424
20,GGATAAGA,0.018
21,AACACGCC,-0.178
22,AGTAAATC,0.184
23,AAGATTGA,0.213
24,GAAATGTC,-0.0666
25,CGGACAAG,-0.0403

row,Sequence,PBM E-score
1,CACTCCCG,-0.039
2,CTAAGAAG,0.109
3,GAGCGACC,-0.221
4,CAAACCCA,0.0343
5,ACCAATAG,-0.0874
6,CCTCTGCC,-0.243
7,AATGCCCG,-0.299
8,AAGCACCA,-0.244
9,CGAATGTC,-0.0589
10,AGTGCTTG,-0.0767
11,CTCTCCTA,-0.058
12,AACATACG,-0.0525
13,ATTTGCCG,-0.0788
14,GAAGGACC,-0.173
15,GAATAGCC,-0.0409
16,CGAGTTTC,-0.127
17,ACGGCGTG,-0.0432
18,AGTGGTTG,0.0688
19,AATAGGCA,-0.191
20,GAGGCTAC,-0.131
21,AACAGCGA,-0.059
22,ATGAACAA,0.0309
23,AGCTGTAT,-0.0122
24,GGACGCGA,0.0535
25,CCGCTAGC,-0.334

row,Sequence,PBM E-score
1,TAGCAACA,-0.0323
2,ACCTTACC,-0.0176
3,ACGAAGGA,0.037
4,ACTGTAGG,0.117
5,CTTACGTC,-0.0626
6,TCATTAAA,0.263
7,AAAGGTCG,-0.0747
8,CTTAGTAA,0.161
9,GTTATGGA,-0.119
10,TCTTAAAA,0.0576
11,TCCATGCA,-0.253
12,AGCACGCT,-0.271
13,ACTCTACA,0.0945
14,CACTCCGA,0.00713
15,CGAGCCTC,-0.158
16,CCGCAGGA,-0.121
17,CGCCGATA,-0.193
18,ACGCCTCT,-0.101
19,ACGAAGGC,-0.201
20,ATCGCGCG,0.0987
21,ACCGAAGC,-0.0648
22,AGGCGACC,-0.191
